In a collection of fitness landscapes (doi:10.1016/j.celrep.2020.107928):
Over roughly 81,000 sequences, “one-hybrid fitness for binding parS DNA” has its median near -0.17; the highest 2% begin near 0.51. The list shows a part of the results.

B1: Caulobacter ParB omega fusion; a variant is named by its letters at X, in order, B8GW30 (parent)
chain: MESVVVGEPGMSEGRRGLGRGLSALLGEVDAAPAQAPGEQLGGSREAPIEILQRNPDQPRRTFREEDLEDLSNSIREKGVLQPILVRPSPDTAGEYQIVAGERAWRAAQRAGLKTVPIMVRELDDLAVLEIGIIENVQRADLNVLEEALSYKVLMEKFERTQENIAQTIGKSXSHVANXMRLLXLPDEVQSYLVSGELTAXHARAIAAAADPVALAKQIIEGGLSVRETEALARKAPNLSAGKSKGGRPPRVKDTDTQALESDLSSVLGLDVSIDHRGSTGTLTITYATLEQLDDLCNRLTRGI

Variants of: B1
Test: one-hybrid fitness for binding parS DNA (scaled: cognate 1, non-cognate 0); higher = stronger binding
Conditions: with parS DNA site
Outline: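 Bacterial one-hybrid selection in E. coli USO rpoZ- hisB- pyrF- with a HIS3 reporter carrying the site 19 bp from the promoter, screening Caulobacter ParB libraries with four specificity codons randomised (NNS). Cells grew 48 hours at 37°C on M9-minus-histidine plus 0.1 mM IPTG and 5 mM 3-AT. Plasmids before and after selection were Illumina-sequenced, three replicate libraries pooled, and variants under 10 reads dropped. Fitness is the log change in variant-to-wild-type read ratio, rescaled to cognate 1, non-cognate 0.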

QVRA and TVCI cannot be ordered by “one-hybrid fitness for binding parS DNA” value: no more than 0.2 for the first, no more than 0.2 for the second.

MREA and QAMA cannot be ordered by “one-hybrid fitness for binding parS DNA” value: no more than 0.2 for the first, no more than 0.2 for the second.

VNNI and QAVY cannot be ordered by “one-hybrid fitness for binding parS DNA” value: no more than 0.2 for the first, no more than 0.2 for the second.

YGVR and CSGG cannot be ordered by “one-hybrid fitness for binding parS DNA” value: no more than 0.2 for the first, no more than 0.2 for the second.

ESNS and QPCV cannot be ordered by “one-hybrid fitness for binding parS DNA” value: no more than 0.2 for the first, no more than 0.2 for the second.

DNPC and HLST cannot be ordered by “one-hybrid fitness for binding parS DNA” value: no more than 0.2 for the first, no more than 0.2 for the second.

HKMM and YAPR cannot be ordered by “one-hybrid fitness for binding parS DNA” value: no more than 0.2 for the first, no more than 0.2 for the second.

HDQT and AFTW cannot be ordered by “one-hybrid fitness for binding parS DNA” value: no more than 0.2 for the first, no more than 0.2 for the second.

QDLD and TRST cannot be ordered by “one-hybrid fitness for binding parS DNA” value: no more than 0.2 for the first, no more than 0.2 for the second.

PYTI and QHKA cannot be ordered by “one-hybrid fitness for binding parS DNA” value: no more than 0.2 for the first, no more than 0.2 for the second.

LGMY and YQTA cannot be ordered by “one-hybrid fitness for binding parS DNA” value: no more than 0.2 for the first, no more than 0.2 for the second.

PCPS and ELWR cannot be ordered by “one-hybrid fitness for binding parS DNA” value: no more than 0.2 for the first, no more than 0.2 for the second.

EAPY and TVQL cannot be ordered by “one-hybrid fitness for binding parS DNA” value: no more than 0.2 for the first, no more than 0.2 for the second.

DMMG and YGRC cannot be ordered by “one-hybrid fitness for binding parS DNA” value: no more than 0.2 for the first, no more than 0.2 for the second.

KRET and ESTS cannot be ordered by “one-hybrid fitness for binding parS DNA” value: no more than 0.2 for the first, no more than 0.2 for the second.

YPLF and GVWN cannot be ordered by “one-hybrid fitness for binding parS DNA” value: no more than 0.2 for the first, no more than 0.2 for the second.

TEEC and TYNS cannot be ordered by “one-hybrid fitness for binding parS DNA” value: no more than 0.2 for the first, no more than 0.2 for the second.

TSTR and SRMW cannot be ordered by “one-hybrid fitness for binding parS DNA” value: no more than 0.2 for the first, no more than 0.2 for the second.

WGRY and HNLS cannot be ordered by “one-hybrid fitness for binding parS DNA” value: no more than 0.2 for the first, no more than 0.2 for the second.

CTQL and STEA cannot be ordered by “one-hybrid fitness for binding parS DNA” value: no more than 0.2 for the first, no more than 0.2 for the second.

VNWG and VWKV cannot be ordered by “one-hybrid fitness for binding parS DNA” value: no more than 0.2 for the first, no more than 0.2 for the second.

QKIG and AVSG cannot be ordered by “one-hybrid fitness for binding parS DNA” value: no more than 0.2 for the first, no more than 0.2 for the second.

QSNM and HRPN cannot be ordered by “one-hybrid fitness for binding parS DNA” value: no more than 0.2 for the first, no more than 0.2 for the second.

NQQS and QHSN cannot be ordered by “one-hybrid fitness for binding parS DNA” value: no more than 0.2 for the first, no more than 0.2 for the second.

QSAA and AHCV cannot be ordered by “one-hybrid fitness for binding parS DNA” value: no more than 0.2 for the first, no more than 0.2 for the second.

GGRQ and TIHD cannot be ordered by “one-hybrid fitness for binding parS DNA” value: no more than 0.2 for the first, no more than 0.2 for the second.

MMRS and ASVL cannot be ordered by “one-hybrid fitness for binding parS DNA” value: no more than 0.2 for the first, no more than 0.2 for the second.

Going from RFAG to NNIG, the “one-hybrid fitness for binding parS DNA” value falls from 0.941 to no more than 0.2.

NHWR and CNRE cannot be ordered by “one-hybrid fitness for binding parS DNA” value: no more than 0.2 for the first, no more than 0.2 for the second.

RWGP and NTYD cannot be ordered by “one-hybrid fitness for binding parS DNA” value: no more than 0.2 for the first, no more than 0.2 for the second.

QTHI and RPNN cannot be ordered by “one-hybrid fitness for binding parS DNA” value: no more than 0.2 for the first, no more than 0.2 for the second.

CDDA and DPHC cannot be ordered by “one-hybrid fitness for binding parS DNA” value: no more than 0.2 for the first, no more than 0.2 for the second.

QWMR and FKAC cannot be ordered by “one-hybrid fitness for binding parS DNA” value: no more than 0.2 for the first, no more than 0.2 for the second.

KPAT and FTVP cannot be ordered by “one-hybrid fitness for binding parS DNA” value: no more than 0.2 for the first, no more than 0.2 for the second.

NYYS and PTGG cannot be ordered by “one-hybrid fitness for binding parS DNA” value: no more than 0.2 for the first, no more than 0.2 for the second.

QCLD and QTVY cannot be ordered by “one-hybrid fitness for binding parS DNA” value: no more than 0.2 for the first, no more than 0.2 for the second.

QWGF and HVQG cannot be ordered by “one-hybrid fitness for binding parS DNA” value: no more than 0.2 for the first, no more than 0.2 for the second.

GCCT and MYPS cannot be ordered by “one-hybrid fitness for binding parS DNA” value: no more than 0.2 for the first, no more than 0.2 for the second.

LVAG and QRCF cannot be ordered by “one-hybrid fitness for binding parS DNA” value: no more than 0.2 for the first, no more than 0.2 for the second.

First: RFQT
Second: CLCC
The “one-hybrid fitness for binding parS DNA” value of the first is higher: 0.8 for the first, no more than 0.2 for the second.

RCEK and HMSV cannot be ordered by “one-hybrid fitness for binding parS DNA” value: no more than 0.2 for the first, no more than 0.2 for the second.

PSQP and RWSW cannot be ordered by “one-hybrid fitness for binding parS DNA” value: no more than 0.2 for the first, no more than 0.2 for the second.
